{"source": "patent US11618753B2", "about": "(priority 2018, dated 2023)", "note": "Where a name gives a salt, the structure may show the parent alone."}
{"system": "MLKL phosphorylation, HT29-L23 human colorectal adenocarcinoma cells", "test": "cells", "details": "read-out: pMLKL HCS Cell Assay (IC50, uM)", "units": {"IC50": "µM"}}
{"smiles": "COc1ncc(-c2cc(C(F)(F)F)c3c(N)ncnn23)cc1C(=O)Nc1cc(Cl)n(Cc2ccccc2)n1", "note": "[Example 1847, 5-(4-amino-5-(trifluoromethyl)pyrrolo[2,1-f][1,2,4]triazin-7-yl)-N-(1-benzyl-5-chloro-1H-pyrazol-3-yl)-2-methoxynicotinamide]", "IC50": 0.029}
{"smiles": "Nc1ncnn2c(-c3ccc(F)c(C(=O)NCC[C@@H](O)c4ccc(Cl)cc4)c3)cc(C(F)(F)F)c12", "note": "[Example 246, 5-[4-amino-5-(trifluoromethyl)pyrrolo[2,1-f][1,2,4]triazin-7-yl]-N-[(3R)-3-(4-chlorophenyl)-3-hydroxypropyl]-2-fluorobenzamide]", "IC50": 0.081}
{"smiles": "COc1ncc(-c2cc(C(F)(F)F)c3c(N)ncnn23)cc1C(=O)N[C@@H]1CN(C(C)c2sc(Cl)nc2C)C[C@@H]1F", "note": "(stereo partly drawn) [Example 1397, 5-[4-amino-5-(trifluoromethyl)-pyrrolo[2,1-f][1,2,4]triazin-7-yl]-N-[(3R,4S)-1-[1-(2-chloro-4-methyl-1,3-thiazol-5-yl)-ethyl]-4-fluoropyrrolidin-3-yl]-2-methoxypyridine-3-carboxamide]", "IC50": 0.028}
{"smiles": "COc1ncc(-c2cc(C(F)(F)F)c3c(N)ncnn23)cc1C(=O)N[C@@H]1CN(CC(O)(C(F)(F)F)C(F)(F)F)C[C@@H]1F", "note": "[Example 1829, 5-(4-amino-5-(trifluoromethyl)pyrrolo[2,1-f][1,2,4]triazin-7-yl)-N-((3R,4S)-4-fluoro-1-(3,3,3-trifluoro-2-hydroxy-2-(trifluoromethyl)propyl)pyrrolidin-3-yl)-2-methoxynicotinamide]", "IC50": 0.0094}
{"smiles": "COc1ncc(-c2cc(C(F)(F)F)c3c(N)ncnn23)cc1C(=O)N[C@@H]1CN(C(C)c2ccncn2)C[C@@H]1F", "note": "(single isomer, unassigned) [Example 452]", "IC50": 0.101}
{"smiles": "Cc1cc(F)c(-c2cc(C(F)(F)F)c3c(N)ncnn23)cc1C(=O)N[C@@H]1CN(C(=O)c2ncccc2Cl)C[C@@H]1F", "note": "[Example 841, 5-[4-amino-5-(trifluoromethyl)pyrrolo[2,1-f][1,2,4]triazin-7-yl]-N-[(3R,4S)-1-(3-chloropyridine-2-carbonyl)-4-fluoropyrrolidin-3-yl]-4-fluoro-2-methylbenzamide]", "IC50": 0.025}
{"smiles": "COc1ncc(-c2cc(C(F)(F)F)c3c(N)ncnn23)cc1C(=O)N[C@@H]1CN(S(=O)(=O)Cc2ccccc2)C[C@@H]1F", "note": "[Example 1472, 5-[4-amino-5-(trifluoromethyl)pyrrolo[2,1-f][1,2,4]triazin-7-yl]-N-[(3R,4S)-4-fluoro-1-phenylmethanesulfonylpyrrolidin-3-yl]-2-methoxypyridine-3-carboxamide]", "IC50": 0.0032}
{"smiles": "COc1ncc(-c2cc(CN3CCC(F)(F)CC3)c3c(N)ncnn23)cc1C(=O)N[C@@H]1CN(C(=O)c2cscn2)C[C@@H]1F", "note": "[Example 1256, 5-{4-amino-5-[(4,4-difluoropiperidin-1-yl)methyl]pyrrolo[2,1-f][1,2,4]triazin-7-yl}-N-[(3R,4S)-4-fluoro-1-(1,3-thiazole-4-carbonyl)pyrrolidin-3-yl]-2-methoxypyridine-3-carboxamide]", "IC50": 0.0021}
{"smiles": "COc1ncc(-c2cc(C(F)(F)F)c3c(N)ncnn23)cc1C(=O)NC1CN(CC2CCCO2)CC1F", "note": "(racemic) [Example 195, 5-[4-amino-5-(trifluoromethyl)pyrrolo[2,1-f][1,2,4]triazin-7-yl]-N-{4-fluoro-1-[(oxolan-2-yl)methyl]pyrrolidin-3-yl}-2-methoxypyridine-3-carboxamide]", "IC50": 0.349}
{"smiles": "COc1ccc(-c2cc(C(F)(F)F)c3c(N)ncnn23)cc1C(=O)N[C@@H]1CN(C(=O)C2CC2(F)F)C[C@@H]1F", "note": "(stereo partly drawn) [Example 1132, 5-[4-amino-5-(trifluoromethyl)pyrrolo[2,1-f][1,2,4]triazin-7-yl]-N-[(3R,4S)-1-(2,2-difluorocyclopropanecarbonyl)-4-fluoropyrrolidin-3-yl]-2-methoxybenzamide]", "IC50": 0.012}
{"smiles": "COc1ncc(-c2cc(C(F)(F)F)c3c(N)ncnn23)cc1C(=O)NC1CN(C(=O)[C@@](C)(O)C(F)(F)F)CC1(F)F", "note": "(stereo partly drawn) [Example 563, 5-(4-amino-5-(trifluoromethyl)pyrrolo[2,1-f][1,2,4]triazin-7-yl)-N-(4,4-difluoro-1-((R)-3,3,3-trifluoro-2-hydroxy-2-methylpropanoyl)pyrrolidin-3-yl)-2-methoxynicotinamide]", "IC50": 0.033}
{"smiles": "Cc1ccc(-c2cc(C(F)(F)F)c3c(N)ncnn23)cc1C(=O)Nc1cn(Cc2ccccc2)cn1", "note": "[Example 1792, 5-(4-amino-5-(trifluoromethyl)pyrrolo[2,1-f][1,2,4]triazin-7-yl)-N-(1-benzyl-1H-imidazol-4-yl)-2-methylbenzamide]", "IC50": 0.00037}
{"smiles": "COc1ncc(-c2cc(C(F)(F)F)c3c(N)ncnn23)cc1C(=O)N[C@@H]1CN(C(C)c2ccccc2)C[C@@H]1F", "note": "(single isomer, unassigned) [Example 432]", "IC50": 0.003}
{"smiles": "[2H]C([2H])([2H])Oc1ncc(-c2cc(CN3CC(F)(F)C3)c3c(N)ncnn23)cc1C(=O)N[C@@H]1CN(S(=O)(=O)C(C)C)C[C@@H]1F", "note": "[Example 1298, 5-{4-amino-5-[(3,3-difluoroazetidin-1-yl)methyl]pyrrolo[2,1-f][1,2,4]triazin-7-yl}-N-[(3R,4S)-4-fluoro-1-(propane-2-sulfonyl)pyrrolidin-3-yl]-2-(methoxy-d3)nicotinamide]", "IC50": 0.0014}
{"smiles": "CC(C(=O)N1C[C@H](F)[C@H](NC(=O)c2cc(-c3cc(C(F)(F)F)c4c(N)ncnn34)ccc2OCC(F)(F)F)C1)C(F)(F)F", "note": "(stereo partly drawn) [Example 1077, 5-[4-amino-5-(trifluoromethyl)pyrrolo[2,1-f][1,2,4]triazin-7-yl]-N-[(3R,4S)-4-fluoro-1-(3,3,3-trifluoro-2-methylpropanoyl)pyrrolidin-3-trifluoroethoxy)benzamide]", "IC50": 0.227}
{"smiles": "Cc1ccc(-c2cc(CN3CCC(C(F)(F)F)CC3)c3c(N)ncnn23)cc1C(=O)N[C@@H]1CN(C(=O)C2CC2(F)F)C[C@@H]1F", "note": "(stereo partly drawn) [Example 1649, 5-(4-amino-5-{[4-(trifluoromethyl)piperidin-1-yl]methyl}pyrrolo[2,1-f][1,2,4]triazin-7-yl)-N-[(3R,4S)-1-(2,2-difluorocyclopropanecarbonyl)-4-fluoropyrrolidin-3-yl]-2-methylbenzamide]", "IC50": 0.0018}
{"smiles": "Cc1ncc(-c2cc(C(F)(F)F)c3c(N)ncnn23)cc1C(=O)Nc1cn(C(c2ccc(F)cc2)C(F)(F)F)cn1", "note": "(stereo not shown) [Example 1819, 5-(4-amino-5-(trifluoromethyl)pyrrolo[2,1-f][1,2,4]triazin-7-yl)-2-methyl-N-(1-(2,2,2-trifluoro-1-(4-fluorophenyl)ethyl)-1H-imidazol-4-yl)nicotinamide]", "IC50": 0.0022}
{"smiles": "CC(C(=O)N1C[C@H](F)[C@H](NC(=O)c2cc(-c3cc(CN4CCC(C(F)(F)F)CC4)c4c(N)ncnn34)ccc2Cl)C1)C(F)(F)F", "note": "(stereo partly drawn) [Example 1162, 5-(4-amino-5-{[4-(trifluoromethyl)piperidin-1-yl]methyl}pyrrolo[2,1-f][1,2,4]triazin-7-yl)-2-chloro-N-[(3R,4S)-4-fluoro-1-(3,3,3-trifluoro-2-methylpropanoyl)pyrrolidin-3-yl]benzamide]", "IC50": 0.0032}
{"smiles": "COc1ncc(-c2cc(C(F)(F)F)c3c(N)ncnn23)cc1C(=O)NC1CN(Cc2cccc(C)c2)CC1F", "note": "(racemic) [Example 237, 5-[4-amino-5-(trifluoromethyl)pyrrolo[2,1-f][1,2,4]triazin-7-yl]-N-{4-fluoro-1-[(3-methylphenyl)methyl]pyrrolidin-3-yl}-2-methoxypyridine-3-carboxamide]", "IC50": 0.039}
{"smiles": "[2H]C([2H])([2H])Oc1ncc(-c2cc(C(F)(F)F)c3c(N)ncnn23)cc1C(=O)N[C@@H]1CN(C(=O)CC(C)(C)O)C[C@@H]1F", "note": "[Example 385, 5-[4-amino-5-(trifluoromethyl)pyrrolo [2,1-f][1,2,4]triazin-7-yl]-N-[(3R,4S)-4-fluoro-1-(3-hydroxy-3-methyl-butanoyl)pyrrolidin-3-yl]-2-(deutero) methoxypyridine-3-carboxamide, TFA]", "IC50": 0.291}
{"smiles": "COc1ncc(-c2cc(CN3CCC3)c3c(N)ncnn23)cc1C(=O)N[C@@H]1CN(CC(O)C(F)(F)F)C[C@@H]1F", "note": "(stereo partly drawn) [Example 483, 5-{4-amino-5-[(azetidin-1-yl)methyl]pyrrolo[2,1-f][1,2,4]triazin-7-yl}-N-[(3R,4S)-4-fluoro-1-(3,3,3-trifluoro-2-hydroxypropyl)pyrrolidin-3-yl]-2-methoxypyridine-3-carboxamide]", "IC50": 0.044}
{"smiles": "COc1ncc(-c2cc(C(F)(F)F)c3c(N)ncnn23)cc1C(=O)N[C@@H]1CN(S(=O)(=O)C(C)CC(C)C)C[C@@H]1F", "note": "(stereo partly drawn) [Example 1465, 5-[4-amino-5-(trifluoromethyl)pyrrolo[2,1-f][1,2,4]triazin-7-yl]-N-[(3R,4S)-4-fluoro-1-(4-methylpentane-2-sulfonyl)pyrrolidin-3-yl]-2-methoxypyridine-3-carboxamide]", "IC50": 0.016}
{"smiles": "Cc1ncc(-c2cc(C(F)(F)F)c3c(N)ncnn23)cc1C(=O)N[C@@H]1CN(C(=O)C2CCC(F)(F)C2)C[C@@H]1C", "note": "(stereo partly drawn) [Example 294, 5-[4-amino-5-(trifluoromethyl)pyrrolo[2,1-f][1,2,4]triazin-7-yl]-N-[(3S,4S)-1-(3,3-difluoro-cyclopentanecarbonyl)-4-methylpyrrolidin-3-yl]-2-methylpyridine-3-carboxamide]", "IC50": 0.046}
{"smiles": "Cc1cc(F)c(-c2cc(C(F)(F)F)c3c(N)ncnn23)cc1C(=O)N[C@@H]1CN(C(=O)c2ccccc2F)C[C@@H]1F", "note": "[Example 412, 5-[4-amino-5-(trifluoromethyl)pyrrolo[2,1-f][1,2,4]triazin-7-yl]-4-fluoro-N-[(3R,4S)-4-fluoro-1-(2-fluorobenzoyl)pyrrolidin-3-yl]-2-methylbenzamide]", "IC50": 0.0072}
{"smiles": "Cc1ncc(-c2cc(C(F)(F)F)c3c(N)ncnn23)cc1C(=O)N[C@@H]1CN(C(=O)C2CC(F)(F)C2)C[C@@H]1F", "note": "[Example 350, 5-[4-amino-5-(trifluoromethyl)pyrrolo[2,1-f][1,2,4]triazin-7-yl]-N-[(3R,4S)-1-(3,3-difluoro-cyclobutanecarbonyl)-4-fluoro-pyrrolidin-3-yl]-2-methyl-pyridine-3-carboxamide]", "IC50": 0.014}
